Several values for one entry are separate records, joined by “and”; a condition that tells them apart may be missing. Identical values can stand only once. In all, about 420,000 compounds went through this assay and about 50,000 (12%) were called active. Inconclusive means that the source gave no clear call. Such entries were picked first, then a sample of the others. Calls follow the shape of the dose curve; as a rule, active = well fitted inhibition curve with a large enough effect; inconclusive = small, poorly fitted or top-dose-only effect; inactive = flat fitted curve, though single readings scatter. No potency is given beside an inconclusive call; the fits are too rough. Some compounds were tested as several samples or in several runs, with calls that do not always agree.
Assay: qHTS for Inhibitors of human tyrosyl-DNA phosphodiesterase 1 (TDP1): qHTS in cells in presence of CPT; also: nearly all actives have a fitted effect of over 55% in size
Conditions: chicken DT40 Tdp1-/-;hTDP1 cells + 20 nM CPT, ATP luminescence, 48 h; activity change, negative = growth inhibition: at 46.2 µM (top of the series) unless noted
How it was run: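 Cell growth measured by CellTiter-Glo luminescence after a minimum 48 h, 37 C compound exposure with 20 nM CPT in Tdp1-knockout DT40 cells stably expressing hTDP1, seeded 400/well; qHTS titration format.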
In the case of `N#Cc1c(-c2ccccc2)nc(-c2cccnc2)[nH]c1=O`, the “activity change, negative = growth inhibition” value is reported as inactive: 6.5%.
With `CCCC(=O)NC(=S)Nc1cc(-c2nc3ncccc3o2)ccc1C` the Potency was inconclusive [inhibitor, single point].
In the case of `COc1cc(/C=C/c2nc3ccccc3c(=O)[nH]2)ccc1O`, the Potency is reported as inconclusive [inhibitor, single point].
In the case of `CCCCOCCCNC(=O)C[C@@H]1C[C@@]2(C(=O)OC)CC(C)(C)CC=C2N(Cc2ccccc2)C1=O`, the Potency is reported as active: 20.6 µM.
In the case of `COc1ccccc1CN(Cc1nc2ccccc2c(=O)[nH]1)C(=O)Nc1ccccc1`, the Potency is reported as active: 3.55 µM.
With `Cc1cccc(-n2c(C)nc3c(cnn3-c3ccc(F)cc3)c2=O)c1` the Potency was active: 18.4 µM.
In the case of `NC(c1ccncc1)c1ccc(Cl)cc1` (centres undefined), the Potency is reported as inconclusive [inhibitor, single point].
With `O=C1c2ccccc2C(=O)N1CCCCc1cn(C[C@H]2CC[C@@H]([C@@H]3CC[C@H](Cn4cc(CCCCN5C(=O)c6ccccc6C5=O)nn4)O3)O2)nn1` the Potency was active: 16.4 µM.
For `CC(=O)c1ccc(C(=O)N2CCCC(Nc3ccc(C(C)C)cc3)C2)s1` (centres undefined), the Potency was inconclusive [inhibitor, single point].
In the case of `CCOC(=O)c1ccc(NS(=O)(=O)c2cccc3nsnc23)cc1`, the “activity change, negative = growth inhibition” value is reported as inactive: -27.7%.
For `O=C(Nc1ccc(Cl)cc1)Nc1nnc(CSCc2ccccc2Cl)s1`, the Potency was active: 16.4 µM.
In the case of `COc1ccccc1C(=O)NCCSc1c(C)[nH]c2ccccc12`, the Potency is reported as active: 16.4 µM.
In the case of `NS(=O)(=O)c1ccc(CCN2C(=O)/C(=C\c3ccc(Cl)cc3)SC2=S)cc1`, the Potency is reported as active: 6.51 µM.
For `O=C(Nc1nnc(SCc2ccc(F)cc2)s1)c1ccco1`, the “activity change, negative = growth inhibition” value was inactive: -7.94%.
For `COc1ccccc1NC(=O)Cn1nnc(-c2ccccc2NC(=O)c2cccs2)n1`, the Potency was inconclusive [inhibitor, single point].
In the case of `COc1cccc(NC(=O)c2ccc3c(c2)N(C)CCS3)c1`, the Potency is reported as inconclusive [inhibitor, single point].
For `CCC(NC(=O)Nc1ccc(OC)c(OC)c1)c1c(-n2cccc2)sc2c1CCN(C)C2` (centres undefined), the Potency was inconclusive [inhibitor, single point].
With `C=CCn1c(CNC(=O)c2cccs2)nnc1SCC(=O)c1ccc(Br)cc1` the Potency was inconclusive [inhibitor, single point].
In the case of `CCCNC(=O)C12CCC(C)(c3nc4cc(C)c(C)cc4nc31)C2(C)C` (centres undefined), the Potency is reported as active: 18.4 µM.
For `CCOC(=O)C1(C)CCN1C(=O)c1cccc(Cl)c1` (centres undefined), the Potency was inconclusive [inhibitor, partial curve, poor fit].
For `COc1ccc(N2CC(NC(=O)C3CC3)CC2=O)cc1` (centres undefined), the “activity change, negative = growth inhibition” value was inactive: 14.4%.
With `O=C(Nc1nc2c(s1)CCCC2)c1ccc(Br)o1` the Potency was inconclusive [inhibitor, single point].
In the case of `CC(Sc1nc(N)cc(=O)[nH]1)C(=O)Nc1nc2c(s1)CCCC2` (centres undefined), the “activity change, negative = growth inhibition” value is reported as inactive: -15%.
With `CCc1ccc(NC(=O)Cn2c(=O)c(CNc3ccccc3)cc3cc(OC)c(OC)cc32)cc1` the Potency was inconclusive [inhibitor, single point].
For `N#CC1=C(N)Oc2cc(O)ccc2C1c1ccc(Br)s1` (centres undefined), the Potency was inconclusive [inhibitor, single point].
In the case of `COc1cc(NC(=O)c2cnc(N)o2)cc(C(=O)Nc2cccc(C(F)(F)F)c2)c1`, the Potency is reported as “inactive and active: 20.6 µM”.
In the case of `COc1ccc(C(CNC(=O)c2ccc(S(=O)(=O)Nc3ccc(F)cc3)cc2)N(C)C)cc1` (centres undefined), the Potency is reported as active: 16.4 µM.
For `CCOC(=O)C1(C(F)(F)F)N=C(c2cccnc2)OC(N2CCCCC2)=N1` (centres undefined), the Potency was inconclusive [inhibitor, single point].
With `O=C(CSc1ncnc2sccc12)Nc1ccccc1F` the “activity change, negative = growth inhibition” value was inactive: 0.0121%.
With `CN(C)c1cc[n+](CC(=O)Nc2ccc(Cl)c([N+](=O)[O-])c2)cc1` the Potency was inconclusive [inhibitor, single point].
For `O=C(NCCc1csc(-c2cccnc2)n1)c1ccccc1Br`, the “activity change, negative = growth inhibition” value was inactive: -25.9%.
With `Cc1cc(C)c(C#N)c(N2CCOCC2)n1` the “activity change, negative = growth inhibition” value was inactive: 7.71%.
With `CC(=O)c1cccc(NC(=O)CCn2c(=O)oc3ccccc32)c1` the “activity change, negative = growth inhibition” value was inactive: -5.36%.
In the case of `CC(=O)c1ccc(NC(=O)CN2CCN(S(=O)(=O)c3ccc4c(c3)OCCO4)CC2)cc1`, the Potency is reported as inconclusive [inhibitor, single point].
In the case of `O=C(CCC1CCCN(C(=O)c2cc(F)ccc2F)C1)N1CCN(c2ccccn2)CC1` (centres undefined), the Potency is reported as inconclusive [inhibitor, single point].
In the case of `CCCCNC(=O)c1[nH]c(C)c(C(C)=O)c1C`, the “activity change, negative = growth inhibition” value is reported as inactive: 42.3%.
For `O=C(CCCCN1CCCCC1)c1ccc2c(c1)Cc1ccccc1-2`, the Potency was inconclusive [inhibitor, single point].
For `CCN1C(=O)[C@H]2[C@@H](c3ccc(C)cc3)N3C(=O)N(c4ccc(OC)cc4)C(=O)[C@@]3(Cc3ccccc3)[C@H]2C1=O`, the “activity change, negative = growth inhibition” value was inactive: -16.7%.
For `CC(C)Cn1c(=O)c2sccc2n2c(CCCC(=O)NC3CCN(Cc4ccccc4)CC3)nnc12`, the “activity change, negative = growth inhibition” value was inactive: 2.76%.
With `CC1CCCCN1C(=O)COC(=O)/C=C/c1ccc2ccccc2n1` (centres undefined) the Potency was inconclusive [inhibitor, single point].
With `Cc1c(O)c2c3c(cccc3c1O)C(=O)N(c1ccccc1)C2=O` the Potency was inconclusive [inhibitor, single point].
With `CN(C)CCCNC(=O)C1(O)c2cc(Br)ccc2NC(=O)N1c1ccc(Cl)cc1` (centres undefined) the “activity change, negative = growth inhibition” value was inactive: 15.7%.
In the case of `O=C(/C=C/c1ccccc1Cl)N(Cc1ccccc1)C1CCS(=O)(=O)C1` (centres undefined), the Potency is reported as inconclusive [inhibitor, partial curve, poor fit].
In the case of `Cc1ccc2nc(-c3ccc(Br)cc3)cc(C(=O)NCC3CCCO3)c2c1` (centres undefined), the Potency is reported as active: 14.6 µM.
For `COc1cccc(N2CCN(C(=O)CCS(=O)(=O)c3ccc4c(c3)CC(=O)N4C)CC2)c1`, the Potency was inconclusive [inhibitor, single point].
In the case of `Cc1cc(C)c(NC(=O)C(C)OC(=O)c2cc(Br)c(Br)s2)c(C)c1` (centres undefined), the Potency is reported as inconclusive [inhibitor, single point].
With `O=C(CN1CCOCC1)Nc1ccc2c(c1)CCC2` the Potency was inconclusive [inhibitor, single point].
With `CCNc1ncc2nc(C)c(=O)n(-c3ccc(OC)cc3)c2n1` the Potency was inconclusive [inhibitor, full curve].
For `O=C(Nc1ccc2c(c1)OCCO2)C1CCCN(S(=O)(=O)c2cccnc2)C1` (centres undefined), the Potency was inconclusive [inhibitor, partial curve].
For `O=C(COc1ccc([N+](=O)[O-])cc1)Nc1ccc2c(c1)nc1n2CCOC1`, the Potency was inconclusive [inhibitor, single point].
For `O=C(c1ccccc1NS(=O)(=O)c1ccc(F)cc1)N1CCCCC1`, the “activity change, negative = growth inhibition” value was inactive: 3.65%.
In the case of `CCN(c1cccc(C)c1)S(=O)(=O)c1ccc(-c2cc(C)no2)s1`, the Potency is reported as active: 2.91 µM.
For `Cc1cc(C(=O)CSc2nc(N)cc(=O)[nH]2)c(C)n1-c1cccc(F)c1`, the Potency was active: 7.31 µM.
In the case of `CCS(=O)(=O)N1CCC(c2nc(-c3ccc(C)cc3)no2)CC1`, the Potency is reported as active: 29.1 µM.
With `CC(C)CNS(=O)(=O)c1cc2c3c(c1)CCC(=O)N3CCC2` the “activity change, negative = growth inhibition” value was inactive: -2.85%.
With `O=C(Cn1c(=O)oc2cc(S(=O)(=O)N3CCCC3)ccc21)NCc1ccc(Cl)cc1` the Potency was active: 16.4 µM.
In the case of `COc1cc(OC)cc(C(=O)Nn2cc(C(=O)Nc3c(F)cccc3F)c3ccccc3c2=O)c1`, the Potency is reported as inconclusive [inhibitor, partial curve].
With `O=[N+]([O-])c1ccccc1C(=Nc1ccccc1)c1c(O)cc(O)cc1O` the Potency was inconclusive [inhibitor, single point].
In the case of `CCOc1c(Br)cc(CNc2ccc(N3CCN(C(C)=O)CC3)cc2)cc1OC`, the Potency is reported as active: 16.4 µM.
For `Cc1nn2c(=O)cc(COC(=O)c3ccc(NC(=O)C(C)(C)C)cc3)nc2s1`, the Potency was inconclusive [inhibitor, single point].
With `O=c1cc(CSc2ccccc2)[nH]c2ccccc12` the Potency was active: 25.9 µM.
In the case of `COc1ccc(NC(C)C(=O)Nc2cccc(S(=O)(=O)N3CCOCC3)c2)cc1OC` (centres undefined), the Potency is reported as active: 9.2 µM.
With `COc1ccc(Cl)cc1Nc1nc(N)c2ccccc2n1` the Potency was inconclusive [inhibitor, single point].
With `COc1ccc2nc(C)cc(N3CCOCC3)c2c1` the “activity change, negative = growth inhibition” value was inactive: -26.3%.
With `Cc1nc2ncnn2c(C)c1CCC(=O)NCCCN1CCN(c2cccc(Cl)c2)CC1` the “activity change, negative = growth inhibition” value was inactive: 3.3%.
With `Cc1ccn2cc(CCNC(=O)CC3CCCCC3)nc2c1` the “activity change, negative = growth inhibition” value was inactive: 14.4%.
In the case of `C[n+]1cn(Cc2cc(Cl)ccc2OC(F)F)c2ccccc21`, the Potency is reported as inconclusive [inhibitor, single point].
For `CCOC(=O)C1CCCN(C(=O)c2ccc(S(=O)(=O)N3CCCC3)cc2)C1` (centres undefined), the “activity change, negative = growth inhibition” value was inactive: -4.85%.
In the case of `CCN(CC)C(=O)Cn1c(=O)n(Cc2ccc(C(=O)NCc3ccc(C)cc3)cc2)c(=O)c2ccccc21`, the Potency is reported as inconclusive [inhibitor, single point].
For `O=C(C[C@@H]1CC[C@H](NC(=O)c2ccc3c(c2)OCO3)[C@@H](CO)O1)NCc1ccc(F)cc1`, the Potency was inconclusive [inhibitor, single point].
For `CCSC1=NC(C)(C)C=C(C)N1`, the “activity change, negative = growth inhibition” value was inactive: -2.79%.
With `COc1ccc(OC)c(NC(=O)NNC(=O)COc2ccc([N+](=O)[O-])cc2)c1` the “activity change, negative = growth inhibition” value was inactive: 3.79%.
For `COc1cc(CN2CCc3ccc(NC(=O)CCc4ccccc4OC)cc3C2)ccc1O`, the Potency was inconclusive [inhibitor, single point].
For `O=C(C1CCC(CNS(=O)(=O)c2ccc(Br)s2)CC1)N1CCN(c2ccccc2Cl)CC1` (centres undefined), the Potency was active: 9.2 µM.

— PubChem BioAssay AID686979 (National Center for Advancing Translational Sciences (NCATS), 2013)
% is scaled to controls: 0 for no effect and ±100 for the full control effect; potency is read from the fitted curve at half-maximal effect; tags tell the direction and shape of the fitted curve.
